From PubChem BioAssay AID1963576 (National Center for Advancing Translational Sciences (NCATS), 2024)
The campaign covered roughly 46,000 compounds. About 60 (0.1%) were called active. Inconclusive results (about 3%) are left out. The call rests on the fitted dose curve; in most records, active means well fitted inhibition curve with a large enough effect; inconclusive means small, poorly fitted or top-dose-only effect; inactive means no such curve, though single readings can be large or run the other way. This is one part of the list.

Test: Primary qHTS assay for Inhibitors of ovarian cancer metastasis using an organotypic tumor microenvironment (TME) model. Further: nearly all actives have a fitted effect of over 65% in size.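 On activity change, negative = inhibition: plate controls were DMSO wells for no effect and tomatine positive control wells for full effect.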
Details: SKOV3ip1-GFP adhesion/invasion on 3D omental model, fluorescence; series mostly up to 45.8 µM; activity change, negative = inhibition: at the top concentration
Method in brief: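 Primary human omental fibroblast/mesothelial 3D culture pre-formed 48 h. SKOV3ip1-GFP cells added with compounds (0.36-46 umol/L), incubated 2 h RT/16 h 37 C, fixed; GFP cells quantified at 488/509 nm.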

Activity change, negative = inhibition, inactive:
Cc1ccccc1NC(=O)CCc1c(C)nn(-c2ccc(N3CCCCC3)nn2)c1C 2.32%
Oc1ccccc1-c1nc(/C=C/c2ccccc2Cl)no1 -13.8%
Cc1nc(-c2ccc(Cl)cc2)sc1CCNC(=O)c1ccco1 -22.7%
Cc1coc2cc3oc(=O)c(CC(=O)NCc4ccc(F)cc4)c(C)c3cc12 1.53%
Cc1ccc(O)c(-c2ccnc3cc(-c4ccc(Cl)cc4)nn23)c1 -10.3%
COc1cc(-c2nc3sccn3c2Nc2cccc(C)c2)ccc1O 0.634%
Cc1ccc2c(=O)c3cccc(CC(=O)O)c3oc2c1C -5.63%
Fc1cccc(F)c1-c1nc(-c2ccncc2)no1 12%
Cc1ccc(CCNC(=O)CCn2c(=O)c3cccn3c3ccc(F)cc32)cc1 -16.1%
COc1ccc(OC)c(NC(=O)Cn2cc(S(=O)(=O)c3ccccc3)c(=O)c3cc(C)ccc32)c1 11.3%
CCCc1nc2sc3c(N4CCCCC4)ncnc3c2c2c1CCCC2 9.19%
CCNC(=O)CC1C(=O)N(c2ccccc2)C(=O)N1Cc1ccc(F)cc1 (configuration not stated) 3.76%
Cc1ccc(NC(=O)CSc2nc(-c3ccc(F)cc3)cc(C(F)(F)F)c2C#N)cc1 -18.2%
O=C(CCn1c(=O)c2cccn2c2ccc(F)cc21)NCc1ccccc1F 6.63%
Cc1nnc(N2CCC(C(=O)NC(C)C)CC2)c2nn(-c3ccc(Cl)cc3)c(C)c12 9.5%
CCCSCCCNC(=O)C1CCN(C(=O)c2cc3sccc3n2C)CC1 -2%
COc1ccc(S(=O)(=O)N(Cc2nc(-c3cccc(C)c3)no2)C2CCCCC2)cc1 3.09%
Cc1ccccc1Cn1c(SCc2ccc(C(=O)NCc3cccs3)cc2)nc2ccncc21 -11%
Cc1cccc(OCc2nnc(SCC(=O)Nc3ccc(C)cc3C)o2)c1 3.37%
CCOc1ccc(-n2c(C)nc3c(cnn3-c3ccc(C)cc3)c2=O)cc1 0.94%
CCC(=C(c1ccc(O)cc1)c1ccc(OCCNC)cc1)c1ccccc1 -4.74%
CC(=O)c1cccc(NC(=O)Cn2c(SCC(=O)Nc3ccc(F)cc3)nc3ccccc32)c1 -9.33%
Cc1c2cnn(CC(=O)NCc3ccccc3)c(=O)c2c(C)n1Cc1cccc(Cl)c1 0.293%
CCC1CCCCN1S(=O)(=O)c1ccc(NC(=O)c2cc(=O)c3ccccc3o2)cc1 (configuration not stated) 0.713%
N#C/C(=C\c1ccc(Cl)cc1)C(=O)NCC1CCCO1 (configuration not stated) 0.0841%
Cn1cc(S(=O)(=O)c2ccccc2)c(=O)c2cc(F)c(N3CCOCC3)cc21 3.9%
COc1ccc(CCN2C(=O)N(c3ccc(F)cc3)C(=O)C2CC(=O)Nc2ccccc2)cc1 (configuration not stated) 4.39%
COCCCNC(=O)CSc1nc(-c2cccc(F)c2)[nH]c1-c1ccccc1 -3.67%
CCC(Nc1ccc(-c2nc(-c3ccco3)no2)cc1[N+](=O)[O-])c1ccccc1 (configuration not stated) 3.82%
Cc1cccc(-c2nc(CCNC(=O)Cc3ccc(F)cc3)cs2)c1 -0.268%
COc1ccccc1CNC(=O)Cn1c(=O)oc2cc(S(=O)(=O)N3CCC(C)CC3)ccc21 -8.67%
COc1ccc(-c2cc(C(F)F)n3ncc(C(=O)Nc4cc(OC)ccc4OC)c3n2)cc1 0.173%
CCOc1ccc(NC(=O)Cc2coc3ccc(C)cc23)cc1 -2.42%
CCc1cnc2c(c1SCC(=O)Nc1ccc(Cl)cc1)c(=O)n(C)c(=O)n2C -7.52%
O=C(NCC(c1ccc2c(c1)OCO2)N1CCOCC1)c1ccccc1F (configuration not stated) -0.551%
CCc1ccc(CNC(=O)CCc2c(C)nn(-c3ccc(N4CCCCC4)nn3)c2C)cc1 8.64%
Cc1cccn2cc(-c3cccc(NS(=O)(=O)c4ccc(Cl)c(Cl)c4)c3)nc12 7.77%
O=C(NCc1ccccc1)c1nnc(Cc2cccc(F)c2)o1 10%
CCc1ccc2occ(CC(=O)Nc3c(C(=O)Nc4ccc(OC)cc4)oc4ccccc34)c2c1 5.24%
COc1ccc(C2c3cccn3CCN2S(=O)(=O)c2ccccc2[N+](=O)[O-])cc1OC (configuration not stated) -8.41%
CCOC(=O)c1c(C)oc2nc(C)nc(NCC3CCN(Cc4cccc(C)c4)CC3)c12 -18.5%
Cc1ccc(NC(=O)CSc2nc3ccc(NC(=O)c4cccs4)cc3s2)c(C)c1 -1.71%
COc1cccc(Cn2c(=O)n(-c3cccc(Cl)c3C)c(=O)c3c4c(sc32)CN(C(C)=O)CC4)c1 -3.62%

outcome, inactive:
Cc1ccc(-n2c(=O)c3c4c(sc3n(Cc3ccccc3F)c2=O)CCC4)cc1C
O=C(Nc1ccccc1)N1CCN(C(=O)c2nsc3ccccc23)CC1
CC(=O)c1cccc(NC(=O)CCc2c(C)nc3c(-c4ccc(F)cc4)c(C)nn3c2C)c1
Cc1cc(=O)n2nc(N3CCC(C(=O)Nc4ccc(C(C)C)cc4)CC3)sc2n1
COc1ccc(NC(=O)Cn2c(=O)oc3cc(S(=O)(=O)NC(C)C)ccc32)cc1OC
CCOc1ccc(C(=O)c2cn(CC(=O)Nc3cc(OC)cc(OC)c3)c3ccc(F)cc3c2=O)cc1
Cc1cccc(NC(=O)Cn2c(=O)n(Cc3ccc(C(=O)NCc4ccc5c(c4)OCO5)cc3)c(=O)c3ccccc32)c1
COc1ccccc1N1CCN(S(=O)(=O)c2ccc3c(c2)oc(=O)n3C)CC1
Cc1ccccc1Cn1c(CCCNC(=O)C2CCCCC2)nc2ccccc21
O=S(=O)(c1ccc(-n2cnnn2)cc1)N1CCN(c2ccccc2F)CC1
O=C(Nc1nc(-c2ccc(Br)cc2)ns1)c1ccc(F)cc1
CCCCOc1ccc(C2c3c(-c4ccccc4O)n[nH]c3C(=O)N2Cc2ccncc2)cc1OC (configuration not stated)
CCN(CCCNC(=O)c1cc2c(=O)[nH]c3ccccc3c2s1)c1ccccc1
O=C(CN1CCN(Cc2ccccc2Cl)C1=O)NCc1ccccc1Cl
COc1ccc(-c2c(C#N)c(SCC(=O)Nc3ccccc3C)nc(C)c2C(=O)Nc2ccccc2)cc1OC
COc1ccccc1NC(=O)CSc1ccc(-c2sc(C)nc2C)nn1
CC(CNC(=O)Cn1ccc2cc(S(=O)(=O)N3CCCCC3)ccc21)c1ccccc1 (configuration not stated)
Cc1ccc2nc(Cl)c3cc(C(=O)N(C)C4CCCCC4)sc3c2c1
CCOc1ccc(CCNC(=O)C2CCN(C(=O)N3CC(CC)Oc4ccc(C)cc43)CC2)cc1 (configuration not stated)
